Measured values from PubChem BioAssay AID493208 (National Center for Advancing Translational Sciences (NCATS), 2011).
About 340 (0.77%) of roughly 44,000 compounds were called active. About 5% were inconclusive and are not listed. The call rests on the fitted dose curve; in most records, active means well fitted inhibition curve with a large enough effect; inconclusive means small, poorly fitted or top-dose-only effect; inactive means flat fitted curve, though single readings scatter. This is one part of the list.

assay: Acumen qHTS Assay for Inhibitors of the mTORC1 Signaling Pathway in MEF (Tsc2-/-, p53-/-) Cells: Sytravon; conditions: phospho-rpS6 immunofluorescence/PI, 24 h; series mostly up to 38.3 µM; activity change, negative = inhibition: at the top concentration;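 further: plate controls were DMSO for no effect and rapamycin for full effect; nearly all actives have a fitted effect of over 50% in size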
Summary of the method: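 Plate MEFs (Tsc2-/-, p53-/-, empty vector) in DMEM/10% FBS; after 24 h add compound, incubate 24 h at 37 degree Celsius; fix in PFA/TX-100, block, stain phospho-rpS6 and 10 uM PI; scan at 488 nm; report % positive cells.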

Activity change, negative = inhibition, inactive:
O=C(CNC(=O)c1ccc(Cl)cc1)OCc1cc(=O)n2ccsc2n1 -9.39%, COc1ccc(-c2[nH]c3c(c2-c2c(-n4cccc4)n(C)c(=O)n(C)c2=O)c(=O)n(C)c(=O)n3C)cc1 -1.22%, COc1cccc(CNC(=O)C(NS(=O)(=O)c2ccc3c(c2)oc(=O)n3C)C(C)C)c1 (stereo unspecified) -2.17%, COc1ccc(O)c(C2Nc3ccccc3-n3c(-c4ccccc4)c4c(=O)n(C)c(=O)n(C)c4c32)c1 (stereo unspecified) -15.2%, COc1ccc(S(=O)(=O)Nc2cccc(-c3ccc(N4CCCCCC4)nn3)c2)cc1 0.653%, Cc1c(C(=O)OCC2CCCCC2)[nH]c2c1C(=O)CC(c1ccc(Cl)cc1)C2 (stereo unspecified) 1.44%, Cc1cccc(NC(=O)CSc2nc(C3CCCC3)nc3c2c(=O)n(C)c(=O)n3C)c1C -5.51%, Cc1nnsc1C(=O)Oc1ccc(C(C)C)cc1 0.586%, COc1ccc2c(c1)-c1nc(NC(=O)c3ccccc3F)sc1CC2 -2.65%, CCN(CC)C(=O)c1sc2c(c1C)c(=O)n(-c1ccc(C)c(C)c1)c(=O)n2Cc1cc(=O)n2c(C)cccc2n1 -3.75%, CCn1c(=O)cc(OCC(=O)NCc2ccccc2Cl)c2ccccc21 2.8%, COc1ccc(CNC(=O)CSc2ncc3c(n2)-c2cc(Cl)ccc2N(Cc2ccccc2)S3(=O)=O)cc1OC 0.43%, COc1ccccc1NC(=O)Cn1c(=O)n(CCc2ccccc2)c(=O)c2c3c(sc21)CN(C(C)=O)CC3 0.714%, Cc1ccc(Cn2cc(/C=C(/C#N)C(=O)Nc3cccc(Cl)c3)c3ccccc32)cc1 -4.24%, O=C(c1ccccc1)n1nc(-c2ccco2)nc1NCc1cccs1 1.96%, CCC(=O)OCc1cnc(C)c2oc(=O)c(C(=O)Nc3ccccc3C(F)(F)F)cc12 11.1%, Cc1ccc(S(=O)(=O)N2CCc3cc(C(=O)Nc4ccc(C)c(C)c4)ccc32)cc1 1.57%, O=c1cc(-c2ccccc2)nc2cc(-c3ccc(F)cc3)[nH]n12 -24.6%, Cc1cccc(N(C)C(=O)CN(C)S(=O)(=O)c2ccc3[nH]c4c(c3c2)CCCC4)c1 -2.91%, COc1cc2ccccc2cc1C(=O)Nc1cc(-c2nc3ccccc3o2)ccc1C -2.38%, COc1ccc(CC(=O)Nc2c(C(=O)Nc3ccc(F)cc3)oc3ccccc23)cc1OC -19.1%, COc1ccc(OC)c(CCNC(=O)CN2C(=O)COc3ccc(S(=O)(=O)N4CCC(C)CC4)cc32)c1 -6.69%, CCCCNc1nc(Oc2ccc(OCCC)nn2)nc(N(C)C)n1 -21.7%, O=C(CCSCc1ccccc1F)N1CCN(c2ccc(Cl)cc2)CC1 6.13%, Cc1nn(-c2ccc(N3CCCC3)nn2)c(C)c1CCC(=O)NCc1ccccc1F -10.1%, COc1ccc(-c2nc3ccccc3o2)cc1NC(=O)CSc1ccc(Cl)cc1 7.43%, CCOc1ccccc1NC(=O)c1sc2nc(-c3ccc(OC)cc3)ccc2c1N -0.347%, CCCN1CCN(CCNC(=O)Nc2cc(C)ccc2OC)CC1 -1.24%, COc1cc2c(C(=O)Nc3ccc(C)cc3Br)cn(C)c(=O)c2cc1OC -13.8%, CCOC(=O)c1ccc(NC2=CC(c3ccc(O)c(OCC)c3)N(c3ccc(C(=O)OCC)cc3)C2=O)cc1 (stereo unspecified) 1.77%, CCC1CCCCN1CCCNC(=O)c1c(O)nc2c(C)cccn2c1=O (stereo unspecified) 2.44%, COc1ccc(-n2c(/C=C/c3cccc4ccccc34)nc3ccccc3c2=O)cc1Cl 7.21%, Cc1ccccc1C(=O)Nc1nnc(S(=O)(=O)N(C)Cc2ccc(Cl)cc2)s1 1.25%, N#Cc1ccccc1Cn1c(=O)n(CCCCC(=O)NCc2ccc3c(c2)OCO3)c(=O)c2ccccc21 1.82%, Cc1ccc(CNC(=O)c2nc(-c3ccc(Cl)cc3)n3c2CCCCC3)cc1 -1.1%, O=C(Cc1ccc(F)cc1)N1CCC(c2nc3c(nnn3Cc3ccc(F)cc3)c(=O)[nH]2)CC1 1.49%, COc1ccc(OCC(=O)Nc2ccc(O)c(-c3nc4ccccc4s3)c2)cc1 6.04%, O=C(NCCSCc1ccccc1Cl)C1CCN(S(=O)(=O)Cc2ccccc2)CC1 -10.5%, CCCn1c(=O)c2sccc2n2c(CCCC(=O)Nc3ccccc3OCC)nnc12 -0.163%, Cc1ccc(CN(C(=O)COc2ccc(C(C)C)cc2)C2CCS(=O)(=O)C2)o1 (stereo unspecified) -4.97%, COc1ccc(CC(=O)N2CC(=O)Nc3ccc(Br)cc3C2c2ccc(F)cc2)cc1 (stereo unspecified) -0.87%, Cc1cccc(NC(=O)c2sc3nc4c(cc3c2N)CN(Cc2ccccc2)CC4)c1 -6.51%, COc1ccccc1NC(=O)c1oc2ccccc2c1NC(=O)c1ccccc1C(F)(F)F -12.7%, CCOc1ccccc1NC(=O)C(C)Sc1nc(-c2ccccc2)c(C#N)c(=O)[nH]1 (stereo unspecified) -1.34%, Cc1nc2sc(C(=O)Nc3ccc(F)cc3)c(N)c2c(-c2ccc(Br)cc2)c1C(=O)Nc1ccc(Cl)cc1 0%, CCc1cccc(NC(=O)c2cnc(SC)nc2-c2ccccc2)c1 -7.31%
